Data reported in ChEMBL document CHEMBL4888484, “Replenishing the malaria drug discovery pipeline: Screening and hit evaluation of the MMV Hit Generation Library 1 (HGL1) against asexual blood stage Plasmodium falciparum ,using a nano luciferase reporter read-out” (2022).
Out of some 150,000 compounds screened, about 540 (0.36%) showed an effect of 50% or more. The list shows a part of the results.

These compounds were tested on Plasmodium falciparum (assay: Primary screen in NF54 nanoGlo assay, in single point, at 2uM, 72h; a lower Z score goes with more inhibition). Conditions: timepoint 72 hour.
Type: functional, Erythrocyte
For `COc1cccn(CC(=O)N(C)Cc2noc(C3CCC3)n2)c1=O`, the “% Inhibition” value was -6% and the Z score was 1.11. `CC(C)=CCN1CC2(CCN(C(=O)CCc3ccncc3)CC2)CC1=O` was tested, and the “% Inhibition” value was -11% and the Z score was 1.3. With `O=C(Cc1cccnc1)N1C2C=CCC1CC2` (stereo not given) the “% Inhibition” value was -9% and the Z score was 1.14. In the case of `Cc1cccc(N2CCN(C(=O)CN3C(=O)CCn4nc(-c5cn(C)c6ccccc56)cc43)CC2)c1C`, the “% Inhibition” value is reported as -3% and the Z score is reported as 0.52. In the case of `Cc1c(Cl)c(C(F)F)nn1CC(=O)N1CCN(C(=O)c2ccco2)CC1`, the “% Inhibition” value is reported as 9% and the Z score is reported as -1.06. `O=C(Nc1ccc(O)c(-c2nc3cnccc3o2)c1)c1ccc(-c2ccc(Cl)c(Cl)c2)o1` was tested, and the “% Inhibition” value was 1% and the Z score was -0.19. For `CN(CCCCN1CCOCC1)c1cc(C(N)=O)ccn1`, the “% Inhibition” value was 1% and the Z score was -0.17. With `NC(=O)c1nnsc1N1CCCCC1` the “% Inhibition” value was -4% and the Z score was 0.64. With `COc1ccc(-c2ccc(=O)n(CN3CCn4nc(C(F)(F)F)nc4C3)n2)cc1OC` the “% Inhibition” value was -2% and the Z score was 0.38. With `CN(Cc1nn(-c2ccc(F)cc2)c2c1CCC2)C[C@H]1CCCO1` the “% Inhibition” value was -5% and the Z score was 0.95. In the case of `CC[C@H](OC1CCCCC1)C(=O)Nc1cnccc1CO`, the “% Inhibition” value is reported as -5% and the Z score is reported as 0.67. `Nc1cc(N2CCCN(CCCc3ccccc3)CC2)ncn1` was tested, and the “% Inhibition” value was -3% and the Z score was 0.44. For `Cc1c(C(=O)O)cccc1S(=O)(=O)N1C[C@H]2CCC(=O)c3cccc1c32`, the “% Inhibition” value was 8% and the Z score was -1.4. With `COc1ccc(C)cc1NC(=O)N1Cc2c(C)nn(-c3ccccc3)c2-n2cccc2[C@H]1c1ccc(Cl)cc1` the “% Inhibition” value was -4% and the Z score was 0.72. With `CN(C)c1nc(CNC(=O)C2CCN(Cc3ccco3)CC2)cs1` the “% Inhibition” value was -9% and the Z score was 1.07. In the case of `CC1C(=O)NCCN1C(=O)C1CCCC(C(=O)O)C1` (stereo not given), the “% Inhibition” value is reported as 5% and the Z score is reported as -0.7. With `CC1COCCN1c1ncc(Cl)c(N2CCOCC2C)n1` (stereo not given) the “% Inhibition” value was 3% and the Z score was -0.23. With `CCOc1cc(CNc2cccc3nc(C(F)(F)F)[nH]c23)ccc1OC` the “% Inhibition” value was 14% and the Z score was -1.77. For `COc1cccc(Cn2c(=O)c3c(C(=O)N4CCCCC4)cc(C)nc3n(-c3ccccc3)c2=O)c1`, the “% Inhibition” value was 0% and the Z score was 0. In the case of `C[C@@H](CN1CCCCC1)c1nc(C2(c3ccccc3)CC2)nn1CCO`, the “% Inhibition” value is reported as -3% and the Z score is reported as 0.41. In the case of `COc1cc(N[C@H]2CCCN(Cc3nnc(C)n3C)C2)cc(OC)c1`, the “% Inhibition” value is reported as 27% and the Z score is reported as -3.69. In the case of `CC(C)=CC1C(C(=O)N(C)C2CCN(CC3CCOC3)CC2)C1(C)C` (stereo not given), the “% Inhibition” value is reported as -17% and the Z score is reported as 1.78. `Cc1cc2ccccc2n1CC(=O)N1CCC[C@H]2C(=O)N(C)C[C@H]21` was tested, and the “% Inhibition” value was 6% and the Z score was -0.77. `CN(C(=O)c1cccnc1)[C@H]1CCOc2ccc(Br)cc21` was tested, and the “% Inhibition” value was -8% and the Z score was 1.08. With `Fc1ccccc1N1CCN(Cc2ccccn2)CC1` the “% Inhibition” value was -19% and the Z score was 2.37. `Cc1cc(C(=O)Nc2nc3ccccc3n2C2CCCC2)nn1C` was tested, and the “% Inhibition” value was -6% and the Z score was 1.25. `Cc1ccccc1OC[C@H](O)C(=O)NCCc1ncc[nH]1` was tested, and the “% Inhibition” value was 3% and the Z score was -0.53. In the case of `COc1ccncc1NC(=O)[C@@H]1CC(c2cc(F)ccc2F)=NO1`, the “% Inhibition” value is reported as -16% and the Z score is reported as 1.48. `CCOC(=O)NC[C@H](O)c1ccc2c(c1)CCO2` was tested, and the “% Inhibition” value was 2% and the Z score was -0.37. In the case of `COc1ccc(F)cc1C(=O)N1C[C@@H]2CC[C@H]1CN(c1ncccn1)C2`, the “% Inhibition” value is reported as 3% and the Z score is reported as -0.59. For `CCc1nc(NCCCn2nc(C)nc2C)ncc1C`, the “% Inhibition” value was -13% and the Z score was 1.25. `Cc1ccc(NCC(=O)NC[C@H]2CCS(=O)(=O)C2)cc1Cl` was tested, and the “% Inhibition” value was -3% and the Z score was 0.34. With `Cc1cc(C)c(CNC(=O)c2csc(CC(C)C)n2)c(=O)[nH]1` the “% Inhibition” value was -9% and the Z score was 0.84. `Cc1noc2nc(CCC(=O)NCc3cccnc3)nc(N3CC(C)CC(C)C3)c12` (stereo not given) was tested, and the “% Inhibition” value was -2% and the Z score was 0.28. With `CNC(=O)CN1c2ccccc2C(=O)N(C)[C@@H]1c1ccc2ccccc2c1` the “% Inhibition” value was -9% and the Z score was 1.42. In the case of `CN1CC2CCC(C1)N2C(=O)Nc1ccccc1Cl`, the “% Inhibition” value is reported as -2% and the Z score is reported as 0.17. In the case of `O=C1CN(C[C@H]2CCCOC2)CCN1Cc1ccccc1F`, the “% Inhibition” value is reported as -18% and the Z score is reported as 2.26. `Cc1cccc(C)c1CN(C)C(=O)N[C@@H](C)c1n[nH]c(=O)n1C` was tested, and the “% Inhibition” value was 15% and the Z score was -1.85. For `CCOc1ccccc1OC/C=C/CNC`, the “% Inhibition” value was -4% and the Z score was 0.39. With `O=C(NCc1cccnc1)c1nnn2c1c(=O)[nH]c1cc(F)ccc12` the “% Inhibition” value was 2% and the Z score was -0.42. `O=C(O)c1ccc2c(c1)C[C@@H](c1ccccc1)NC2=O` was tested, and the “% Inhibition” value was -20% and the Z score was 2.62. For `COC(C(=O)N1CCOCC1c1nc2ccccc2s1)C1CC1` (stereo not given), the “% Inhibition” value was -4% and the Z score was 0.53. `N#Cc1cccc(C(=O)N2CCC[C@H]2c2nc(CCOCC3CCCC3)no2)c1` was tested, and the “% Inhibition” value was 0% and the Z score was -0.03. `COCCN1CCc2c(C)nc3c(-c4ccc(OC)c(OC)c4)cnn3c21` was tested, and the “% Inhibition” value was 44% and the Z score was -5.65. In the case of `N#Cc1cnc(N[C@H]2CC[C@H](Nc3cnc(C#N)cn3)CC2)cn1`, the “% Inhibition” value is reported as -17% and the Z score is reported as 3.22. `NCCCN(c1ccccc1)c1ncccn1` was tested, and the “% Inhibition” value was -5% and the Z score was 0.62. With `N#Cc1ccc(-c2nc(CC(N)=O)nn2C2Cc3ccccc3C2)cn1` the “% Inhibition” value was -1% and the Z score was 0.19. `COc1ccc(-n2nc(C)c3sc(N4CCN(C(=O)c5ccccc5F)CC4)nc32)cc1` was tested, and the “% Inhibition” value was -9% and the Z score was 1.06. For `O=C(O)[C@@H]1CN(C(=O)Cc2ccccc2Cl)c2ccccc2O1`, the “% Inhibition” value was -9% and the Z score was 1.28. In the case of `Cc1ccn(-c2ccnc(N3CCN(c4ccccc4F)CC3)n2)n1`, the “% Inhibition” value is reported as -11% and the Z score is reported as 1.65. For `CCC(CC)C(=O)N1CCN(c2cc(-n3ccc(C)n3)ncn2)CC1`, the “% Inhibition” value was -8% and the Z score was 0.9. With `C[C@@]1(C(=O)NCc2ccccc2)CCC(=O)N1CCc1cccs1` the “% Inhibition” value was -1% and the Z score was 0.08. With `COc1cccc(CC(=O)N2CC3CC2CO3)c1` (stereo not given) the “% Inhibition” value was -7% and the Z score was 0.84. With `CC(C)(C(=O)N1CCO[C@@H](CC(=O)O)C1)c1cccs1` the “% Inhibition” value was 1% and the Z score was -0.08. With `Cn1cc2c(n1)c(=O)n(Cc1ccc(Cl)cc1)c1nn(Cc3ccccc3F)c(=O)n21` the “% Inhibition” value was 4% and the Z score was -0.5. `CCCCc1nc(C)sc1C(=O)Nc1ncc[nH]1` was tested, and the “% Inhibition” value was 26% and the Z score was -2.91. For `CCC(C)Oc1ccc(CN2C[C@H]3C[C@H](O)[C@@H](O)C[C@H]3C2)cc1Cl` (stereo not given in full), the “% Inhibition” value was -3% and the Z score was 0.43. For `C=CCn1c(-c2ccc(F)cc2)cn2cc(C(=O)N3CC(O)C3)nc2c1=O`, the “% Inhibition” value was -3% and the Z score was 0.53. In the case of `Cc1ccc(CN(C(=O)COc2ccc(Cl)c(C)c2)c2ccccn2)o1`, the “% Inhibition” value is reported as 9% and the Z score is reported as -1.06. For `Cc1ccc(CN[C@@H](C)c2nccnc2C)c(Cl)c1`, the “% Inhibition” value was -13% and the Z score was 2.63. `Clc1cccc(-c2cn[nH]c2[C@H]2CCCNC2)c1` was tested, and the “% Inhibition” value was 1% and the Z score was -0.27. For `CCC[C@@]1(C(=O)OCC)CCCN1Cc1csc(CC(=O)NC)n1`, the “% Inhibition” value was -8% and the Z score was 0.97. For `Cc1ccccc1[C@@H](C)C(=O)NC1(c2nnn[nH]2)CC1`, the “% Inhibition” value was 0% and the Z score was -0.07. In the case of `COc1cccc(CC[C@H]2CCCN(S(=O)(=O)N(C)C)C2)c1`, the “% Inhibition” value is reported as 11% and the Z score is reported as -2.17. With `COc1ncccc1C(=O)N1C2C=CCC1CC2` (stereo not given) the “% Inhibition” value was 1% and the Z score was -0.24. For `O=C(Cc1cnn2ccccc12)N1CC[C@@H]2CC[C@@]21c1cccnc1`, the “% Inhibition” value was -10% and the Z score was 1.67. In the case of `Cc1ccc(N2N=C(C(=O)Nc3ccc4c(c3)C(=O)N(C)C4=O)CCC2=O)cc1Cl`, the “% Inhibition” value is reported as -10% and the Z score is reported as 1.71. `Cc1c(NC(=O)C2=COCCO2)c(=O)n(-c2ccccc2)n1C` was tested, and the “% Inhibition” value was 9% and the Z score was -1.23. `Cc1ccc(O[C@H]2CCCN(C(=O)c3ccsc3)C2)nn1` was tested, and the “% Inhibition” value was -9% and the Z score was 1.55. In the case of `NC(=O)N1CCC(NC(=O)C2CC2c2cc(Cl)cc(Cl)c2)C1` (stereo not given), the “% Inhibition” value is reported as 15% and the Z score is reported as -1.93. With `O=C(Nc1cccc(C2CCOCC2)c1)c1cccnc1O` the “% Inhibition” value was 2% and the Z score was -0.24. In the case of `C[C@H](NCCc1cccc2cccnc12)c1ccc(-n2cnnn2)cc1`, the “% Inhibition” value is reported as 3% and the Z score is reported as -0.42. For `CC(C)N(CC(F)(F)F)C(=O)Cn1nnnc1C1CC1`, the “% Inhibition” value was 6% and the Z score was -1.03. In the case of `CCC(=O)N1CCCN(c2ccc(C#N)nc2)CC1`, the “% Inhibition” value is reported as -10% and the Z score is reported as 1.3. `COCCCNC(=O)Cc1c(C)n(C)c2nc(-c3ccccc3)nn2c1=O` was tested, and the “% Inhibition” value was -10% and the Z score was 0.98. For `Cc1noc(C)c1CC(=O)O[C@@H](C)C(=O)N1CC(=O)Nc2ccccc21`, the “% Inhibition” value was -31% and the Z score was 3.61. For `O=C(Nc1ccc(F)cc1Br)c1cnc(OC2CCOCC2)c(Cl)c1`, the “% Inhibition” value was 1% and the Z score was -0.08. In the case of `O=C(c1cc2ncccn2n1)N1CCc2ccccc2C1`, the “% Inhibition” value is reported as 36% and the Z score is reported as -1.16. In the case of `CC(=O)Nc1ccc(-c2c(C(C)C)nn(-c3cccc(F)c3)c2OC(C)=O)cc1`, the “% Inhibition” value is reported as -7% and the Z score is reported as 1.21. With `O=C(COc1ccc(Nc2ccccc2)cc1)N1CCN(S(=O)(=O)c2cccc(F)c2)CC1` the “% Inhibition” value was 1% and the Z score was -0.15. With `CN1N=C(C(=O)Nc2cc(CCc3ccccc3)ccn2)CCC1=O` the “% Inhibition” value was -10% and the Z score was 1.79. With `O=C(Nc1ccccc1Cl)N1C[C@@H]2C[C@H](NS(=O)(=O)c3ccccc3)[C@H]1C2` the “% Inhibition” value was 30% and the Z score was -3.36. For `CCOC(=O)C[C@H]1COCCN1C(=O)c1cn(C(c2ccccc2)c2ccccc2)nn1`, the “% Inhibition” value was -10% and the Z score was 1.28. With `NC(Cc1ccccc1)=NOCC(=O)NC1CCCCCC1` the “% Inhibition” value was -31% and the Z score was 3.65. In the case of `CC(C)(C)c1ccc(Cn2cnc3c2c(=O)n(C2CC2)c(=O)n3-c2ccc(F)cc2F)cc1`, the “% Inhibition” value is reported as 0% and the Z score is reported as 0.05.
